# Some of the results follow.
# B1: ArathEULS3 (Arabidopsis thaliana), Q945P1 (protein)
# chain: MEHHHQHHRHHQRDDGEDDRQSFGVPPPHVDAPPQPHGLYQSQPHFDPYAPTPQAPAPYRSETQFEPHAPPPYRSEPYFETPAPPPSFGHVSHVGHQSPNESYPPEHHRYGGYQQPSNSLLESHGDHSGVTHVAHHSSNQPQSSSGVYHKPDENRLPDNLAGLAGRATVKVYSKAEPNYNLTIRDGKVILAPADPSDEAQHWYKDEKYSTKVKDADGHPCFALVNKATGEAMKHSVGATHPVHLIRYVPDKLDESVLWTESKDFGDGYRTIRMVNNTRLNVDAYHGDSKSGGVRDGTTIVLWDWNKGDNQLWKIFPFILEQKLISEEDLNSAVDHHHHHH
# What was measured:
# Experiment in all cases: glycan array binding signal (z-score within array); higher = stronger binding
# Conditions in all cases: glycan notation: IUPAC condensed, linker removed
# Gal(b1-3)Gal(b1-4)GlcNAc = molecular target: Gal(b1-3)Gal(b1-4)GlcNAc
# How it was run: (§1)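 Negative Z-scores can be read as non-binding. The Z-score is calculated within each array and then averaged across arrays of one protein sequence at different concentrations or buffers and across linkers. Arrays, 3228 in all, were curated from the Consortium for Functional Glycomics database and kept only where the protein sequence was available.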
# [1] = molecular target: Gal(b1-3)Gal(b1-4)GlcNAc(b1-2)Man(a1-3)[Gal(b1-3)Gal(b1-4)GlcNAc(b1-2)Man(a1-6)]Man(b1-4)GlcNAc(b1-4)GlcNAc
# How it was run: as §1
# Gal(b1-3)GalNAc = molecular target: Gal(b1-3)GalNAc
# How it was run: as §1
# [2] = molecular target: Gal(b1-3)GalNAc(a1-3)[Fuc(a1-2)]Gal(b1-4)Glc
# How it was run: as §1
# [3] = molecular target: Gal(b1-3)GalNAc(a1-3)[Fuc(a1-2)]Gal(b1-4)GlcNAc
# How it was run: as §1
# [4] = molecular target: Gal(b1-3)GalNAc(b1-3)Gal(a1-4)Gal(b1-4)Glc
# How it was run: as §1
# [5] = molecular target: Gal(b1-3)GalNAc(b1-4)Gal(b1-4)Glc
# How it was run: as §1
# [6] = molecular target: Gal(b1-3)GalNAc(b1-4)[Neu5Ac(a2-3)]Gal(b1-4)Glc
# How it was run: as §1
# Gal(b1-3)GlcNAc = molecular target: Gal(b1-3)GlcNAc
# How it was run: as §1
# [7] = molecular target: Gal(b1-3)GlcNAc(a1-3)Gal(b1-4)GlcNAc
# How it was run: as §1
# [8] = molecular target: Gal(b1-3)GlcNAc(a1-6)Gal(b1-4)GlcNAc
# How it was run: as §1
# [9] = molecular target: Gal(b1-3)GlcNAc(b1-2)Man(a1-3)[Gal(b1-3)GlcNAc(b1-2)Man(a1-6)]Man(b1-4)GlcNAc(b1-4)GlcNAc
# How it was run: as §1
# [10] = molecular target: Gal(b1-3)GlcNAc(b1-2)Man(a1-3)[Gal(b1-3)GlcNAc(b1-2)Man(a1-6)]Man(b1-4)GlcNAc(b1-4)[Fuc(a1-6)]GlcNAc
# How it was run: as §1
# [11] = molecular target: Gal(b1-3)GlcNAc(b1-2)Man(a1-3)[GlcNAc(b1-4)][Gal(b1-3)GlcNAc(b1-2)Man(a1-6)]Man(b1-4)GlcNAc(b1-4)GlcNAc
# How it was run: as §1
# [12] = molecular target: Gal(b1-3)GlcNAc(b1-2)[Gal(b1-3)GlcNAc(b1-6)]Man(a1-6)[Gal(b1-3)GlcNAc(b1-2)Man(a1-3)]Man(b1-4)GlcNAc(b1-4)GlcNAc
# How it was run: as §1
# [13] = molecular target: Gal(b1-3)GlcNAc(b1-3)Gal(b1-3)GlcNAc
# How it was run: as §1
# [14] = molecular target: Gal(b1-3)GlcNAc(b1-3)Gal(b1-4)Glc
# How it was run: as §1
# [15] = molecular target: Gal(b1-3)GlcNAc(b1-3)Gal(b1-4)GlcNAc
# How it was run: as §1
# [16] = molecular target: Gal(b1-3)GlcNAc(b1-3)Gal(b1-4)GlcNAc(b1-6)[Gal(b1-3)GlcNAc(b1-3)]Gal(b1-4)Glc
# How it was run: as §1
# [17] = molecular target: Gal(b1-3)GlcNAc(b1-3)Gal(b1-4)[Fuc(a1-3)]GlcNAc(b1-6)[Gal(b1-3)GlcNAc(b1-3)]Gal(b1-4)Glc
# How it was run: as §1
# [18] = molecular target: Gal(b1-3)GlcNAc(b1-3)GalNAc
# How it was run: as §1
# [19] = molecular target: Gal(b1-3)GlcNAc(b1-6)Gal(b1-4)GlcNAc
# How it was run: as §1
# [20] = molecular target: Gal(b1-3)GlcNAc(b1-6)GalNAc
# How it was run: as §1
# Gal(b1-3)GlcNAc6S = molecular target: Gal(b1-3)GlcNAc6S
# How it was run: as §1
# [21] = molecular target: Gal(b1-3)[Fuc(a1-4)]GlcNAc
# How it was run: as §1
# [22] = molecular target: Gal(b1-3)[Fuc(a1-4)]GlcNAc(b1-2)Man(a1-3)[Gal(b1-3)[Fuc(a1-4)]GlcNAc(b1-2)Man(a1-6)]Man(b1-4)GlcNAc(b1-4)[Fuc(a1-6)]GlcNAc
# How it was run: as §1
# [23] = molecular target: Gal(b1-3)[Fuc(a1-4)]GlcNAc(b1-3)Gal(b1-3)[Fuc(a1-4)]GlcNAc
# How it was run: as §1
# [24] = molecular target: Gal(b1-3)[Fuc(a1-4)]GlcNAc(b1-3)Gal(b1-4)GlcNAc
# How it was run: as §1
# [25] = molecular target: Gal(b1-3)[Fuc(a1-4)]GlcNAc(b1-3)Gal(b1-4)[Fuc(a1-3)]GlcNAc
# How it was run: as §1
# [26] = molecular target: Gal(b1-3)[Fuc(a1-4)]GlcNAc(b1-6)GalNAc
# How it was run: as §1
# [27] = molecular target: Gal(b1-3)[GlcNAc(b1-6)]GalNAc
# How it was run: as §1
# [28] = molecular target: Gal(b1-3)[Neu5Ac(a2-6)]GalNAc
# How it was run: as §1
# [29] = molecular target: Gal(b1-3)[Neu5Ac(a2-6)]GlcNAc(b1-6)Gal(b1-4)Glc
# How it was run: as §1
# [30] = molecular target: Gal(b1-3)[Neu5Ac(b2-6)]GalNAc
# How it was run: as §1
# Gal(b1-4)Gal = molecular target: Gal(b1-4)Gal
# How it was run: as §1
# [31] = molecular target: Gal(b1-4)GalNAc(a1-3)[Fuc(a1-2)]Gal(b1-4)GlcNAc
# How it was run: as §1
# [32] = molecular target: Gal(b1-4)GalNAc(b1-3)[Fuc(a1-2)]Gal(b1-4)GlcNAc
# How it was run: as §1
# Gal(b1-4)Glc = molecular target: Gal(b1-4)Glc
# How it was run: as §1
binder,measurement,setting,value
B1,glycan array binding signal (z-score),Gal(b1-3)Gal(b1-4)GlcNAc,-0.32
same,glycan array binding signal (z-score),[1],0.16
same,glycan array binding signal (z-score),Gal(b1-3)GalNAc,-0.25
same,glycan array binding signal (z-score),[2],-0.273
same,glycan array binding signal (z-score),[3],-0.287
same,glycan array binding signal (z-score),[4],-0.321
same,glycan array binding signal (z-score),[5],-0.234
same,glycan array binding signal (z-score),[6],-0.17
same,glycan array binding signal (z-score),Gal(b1-3)GlcNAc,-0.367
same,glycan array binding signal (z-score),[7],-0.076
same,glycan array binding signal (z-score),[8],-0.235
same,glycan array binding signal (z-score),[9],0.023
same,glycan array binding signal (z-score),[10],-0.009
same,glycan array binding signal (z-score),[11],0.478
same,glycan array binding signal (z-score),[12],-0.045
same,glycan array binding signal (z-score),[13],-0.295
same,glycan array binding signal (z-score),[14],0.175
same,glycan array binding signal (z-score),[15],-0.398
same,glycan array binding signal (z-score),[16],0.468
same,glycan array binding signal (z-score),[17],-0.003
same,glycan array binding signal (z-score),[18],-0.179
same,glycan array binding signal (z-score),[19],-0.253
same,glycan array binding signal (z-score),[20],-0.26
same,glycan array binding signal (z-score),Gal(b1-3)GlcNAc6S,1.15
same,glycan array binding signal (z-score),[21],-0.19
same,glycan array binding signal (z-score),[22],-0.262
same,glycan array binding signal (z-score),[23],-0.295
same,glycan array binding signal (z-score),[24],-0.222
same,glycan array binding signal (z-score),[25],-0.244
same,glycan array binding signal (z-score),[26],0.017
same,glycan array binding signal (z-score),[27],-0.212
same,glycan array binding signal (z-score),[28],-0.164
same,glycan array binding signal (z-score),[29],-0.212
same,glycan array binding signal (z-score),[30],-0.163
same,glycan array binding signal (z-score),Gal(b1-4)Gal,1.17
same,glycan array binding signal (z-score),[31],-0.394
same,glycan array binding signal (z-score),[32],-0.274
same,glycan array binding signal (z-score),Gal(b1-4)Glc,-0.098

# Reference: the supplement of paper PMC8728848
